In patent US20260216242A1 (ALMAC DISCOVERY, published 2026):

T1: Human ALPL (leucine zipper) (human)
T1 construct: Whole entry: fused with a cysteine stabilised leucine zipper and His tag; also called hALPL
T1 chain: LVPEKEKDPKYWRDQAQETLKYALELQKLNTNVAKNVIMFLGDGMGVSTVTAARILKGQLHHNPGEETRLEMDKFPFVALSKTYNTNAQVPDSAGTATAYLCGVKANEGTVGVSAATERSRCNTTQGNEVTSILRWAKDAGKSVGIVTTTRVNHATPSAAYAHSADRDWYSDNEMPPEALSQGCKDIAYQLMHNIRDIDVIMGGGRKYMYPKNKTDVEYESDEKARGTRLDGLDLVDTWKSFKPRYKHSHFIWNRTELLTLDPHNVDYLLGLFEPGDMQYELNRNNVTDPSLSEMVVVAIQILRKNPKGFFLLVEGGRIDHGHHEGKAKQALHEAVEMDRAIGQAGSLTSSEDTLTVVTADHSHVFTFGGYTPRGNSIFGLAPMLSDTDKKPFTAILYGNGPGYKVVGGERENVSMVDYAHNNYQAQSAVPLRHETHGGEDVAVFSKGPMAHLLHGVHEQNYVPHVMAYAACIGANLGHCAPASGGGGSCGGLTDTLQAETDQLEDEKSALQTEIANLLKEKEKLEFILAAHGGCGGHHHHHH

T2: Human ALPPL2 (leucine zipper) (human)
T2 construct: Whole entry: fused with a cysteine stabilised leucine zipper and His tag; also called hALPPL2
T2 chain: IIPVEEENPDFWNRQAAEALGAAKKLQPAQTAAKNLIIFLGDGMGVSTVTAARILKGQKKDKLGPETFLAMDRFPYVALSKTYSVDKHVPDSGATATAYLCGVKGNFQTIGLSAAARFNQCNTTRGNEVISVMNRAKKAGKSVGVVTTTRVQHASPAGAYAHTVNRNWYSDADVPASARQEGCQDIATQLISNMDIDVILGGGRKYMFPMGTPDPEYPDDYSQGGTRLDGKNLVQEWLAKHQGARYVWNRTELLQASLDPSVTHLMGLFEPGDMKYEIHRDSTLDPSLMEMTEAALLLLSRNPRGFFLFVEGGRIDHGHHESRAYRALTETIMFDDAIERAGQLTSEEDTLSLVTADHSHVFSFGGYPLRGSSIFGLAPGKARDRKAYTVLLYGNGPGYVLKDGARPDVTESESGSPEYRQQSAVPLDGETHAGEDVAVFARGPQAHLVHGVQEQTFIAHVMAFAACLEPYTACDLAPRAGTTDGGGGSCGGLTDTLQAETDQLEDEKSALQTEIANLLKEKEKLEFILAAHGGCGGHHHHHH

T3: Human ALPP (leucine zipper) (human)
T3 construct: Whole entry: ALPP fused with a cysteine stabilised leucine zipper and His tag; also called hALPP
T3 chain: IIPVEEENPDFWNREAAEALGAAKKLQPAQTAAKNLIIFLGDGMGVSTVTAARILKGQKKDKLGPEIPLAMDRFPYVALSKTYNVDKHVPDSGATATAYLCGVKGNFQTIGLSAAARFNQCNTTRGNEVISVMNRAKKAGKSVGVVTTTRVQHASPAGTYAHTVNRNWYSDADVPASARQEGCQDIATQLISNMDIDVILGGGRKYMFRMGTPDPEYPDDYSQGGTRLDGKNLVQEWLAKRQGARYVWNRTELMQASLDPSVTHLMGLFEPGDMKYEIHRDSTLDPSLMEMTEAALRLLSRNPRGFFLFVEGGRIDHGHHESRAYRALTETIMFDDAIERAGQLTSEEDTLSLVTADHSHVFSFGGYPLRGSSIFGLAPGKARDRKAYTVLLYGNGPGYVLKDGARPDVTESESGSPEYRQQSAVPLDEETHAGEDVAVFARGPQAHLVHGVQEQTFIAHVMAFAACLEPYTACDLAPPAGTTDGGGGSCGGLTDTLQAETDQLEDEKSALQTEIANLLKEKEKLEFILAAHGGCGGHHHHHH

B1: D10-hFc (S239C) (Fc fusion)
chain: QVQLVESGGGLVQPGGSLRLSCAASGSIFSVNTMGWYRQAPGKQRDLVAVATSGGTIHYADSVKGRFTISRDNAKNTVYLQMNSLKPEDTAVYYCNLVVPYGMIAGDHDYWGQGTKVTVSSGGGGSGGGGSGGGGS[human IgG1 Fc with changes not spelt out]
notes: [G4S]3 linker
B2: E06-hFc (S239C) (Fc fusion)
chain: QVHLVESGGGLVQAGGSLRLSCAASRRSFSEYAMGWFRQAPGKEREFVAAIGWSGVIEYADSVKGRFTISRDNAKDTVYLQMNSLKPEDTAVYYCAAGLGIRVVSQTPAYWGQGTQVTVSSGGGGSGGGGSGGGGS[human IgG1 Fc with changes not spelt out]
notes: [G4S]3 linker
B3: E10-hFc (S239C) (Fc fusion)
chain: QVQLVESGGGLVQAGGSLRLSCAVSGRALSDYNIGWFRQAPGKEREFVARKTWDGSSTRYDDSVKGRFTVSIEDAKNTAYLQMSSLKTEDTAVYYCAAGRYSRARGWEYDYWGQGTQVTVSSGGGGSGGGGSGGGGS[human IgG1 Fc with changes not spelt out]
notes: [G4S]3 linker; also called #435
B4: F05-hFc (S239C) (Fc fusion)
chain: QVQLVESGGGLVQAGGSLRLSCAASGRAFGDYNIGWFRQAPGKEREFVARRTWDGSSTRYDDSVKGRFTVSIDNAKNTAYLQMNSLKTEDTAVYYCAAGRYSRVRGWEYDYWGQGTQVTVSSGGGGSGGGGSGGGGS[human IgG1 Fc with changes not spelt out]
notes: [G4S]3 linker; also called #436
B5: A06-hFc (S239C) (Fc fusion)
chain: QVHLVESGGGLVQAGGSLRLSCAASGRTFLSMGWFRQAPGKEREFVAAISWTGGSTGYADSVKGRFTISRESDKETMYLQMNSLKPEDTAVYYCAARGDVYYGGDDATRYKYWGQGTQVTVSSGGGGSGGGGSGGGGS[human IgG1 Fc with changes not spelt out]
notes: [G4S]3 linker; also called #340
B6: B01-hFc (S239C) (Fc fusion)
chain: QVQLVESGGGLVQAGGSLRLSCEVTRSPMPIDTMAWYRQAPGRQRELVAIISRSGSTNYADSVKGRFTISRNDTKSTMYKSTMYLKMNTLELEDTGVYYCNAVGLWNGAEYWGQGTQVTVSSGGGGSGGGGSGGGGS[human IgG1 Fc with changes not spelt out]
notes: Built from parts; also called #341
B7: C07-hFc (S239C) (Fc fusion)
chain: QVQLVESGGGLVQAGESLRLACAASGTIFSGNAVGWYRQAPEKQREWVSSITDYGDTDYAEAVKGRFTISRDNAKNTVYLQMNSLKPEDTAVYYCYVYQRGESEEYWGQGTQVTVSSGGGGSGGGGSGGGGS[human IgG1 Fc with changes not spelt out]
notes: Built from parts
B8: D04-hFc (S239C) (Fc fusion)
chain: QVQLVESGGGLVQPGGSLRLSCAASESTFSINVMGWYRQAPGKQRELVATITSGDITNYADSVKGRFTISRDNAENTVYLRTNSLKPEDTAVYYCNARGEYHSGNEYDYWGQGTQVTVSSGGGGSGGGGSGGGGS[human IgG1 Fc with changes not spelt out]
notes: Built from parts; also called #371

Target: T1, Human ALPL (leucine zipper)
Test: BLI, antigen immobilised
B1: no binding. B2: no binding. B3: no binding. B4: no binding. B5: no binding. B6: no binding. B7: no binding. B8: no binding.

Target: T2, Human ALPPL2 (leucine zipper)
Test: BLI, antigen immobilised, KD apparent
Protocol: (§1) Binding kinetics were determined using the Biolayer Interferometry (BLI) Octet K2 or R4 system (Sartorius). […] For KD apparent measurements, the ALPP proteins were immobilised in sodium acetate pH5 buffer to AR2G sensors using amine coupling. To measure 1:1 interactions, AHC biosensors were used to immobilise Fc-fused proteins. All assays were conducted in HBS-EP with a plate temperature of 25° C. Ka (M⁻¹s⁻¹), Kd (s⁻¹) and KD (nM) values were determined using Octet Data Analysis High Throughput software (Sartorius) for Biolayer Interferometry.
For B1, the Kd was 9.94 nM, the koff was 0.00186 s⁻¹ and the kon was 187000 M⁻¹ s⁻¹. B2 gave a Kd of less than 0.01 nM, a koff of less than 1e-07 s⁻¹ and a kon of 688000 M⁻¹ s⁻¹. B3 gave a Kd of less than 0.01 nM, a koff of less than 1e-07 s⁻¹ and a kon of 288000 M⁻¹ s⁻¹. B4 gave a Kd of 0.03 nM, a koff of 1.06e-05 s⁻¹ and a kon of 350000 M⁻¹ s⁻¹. B5 was tested, and the Kd was 0.584 nM, the koff was 0.000215 s⁻¹ and the kon was 368000 M⁻¹ s⁻¹. For B6, the Kd was 0.201 nM, the koff was 6.18e-05 s⁻¹ and the kon was 308000 M⁻¹ s⁻¹. For B7, the Kd was 0.449 nM, the koff was 0.000114 s⁻¹ and the kon was 253000 M⁻¹ s⁻¹. Binder B8 has a Kd of 2.3 nM, a koff of 0.000239 s⁻¹ and a kon of 104000 M⁻¹ s⁻¹.

Target: T3, Human ALPP (leucine zipper)
Test: BLI, antigen immobilised, KD apparent
Protocol: as §1
In the case of B1, the Kd is reported as 0.0677 nM, the koff is reported as 1.08e-05 s⁻¹ and the kon is reported as 160000 M⁻¹ s⁻¹. B2 gave a Kd of 0.038 nM, a koff of 1.22e-05 s⁻¹ and a kon of 321000 M⁻¹ s⁻¹. B3 showed a Kd of 0.012 nM, a koff of 4.69e-06 s⁻¹ and a kon of 382000 M⁻¹ s⁻¹. B4 gave a Kd of 0.063 nM, a koff of 2.06e-05 s⁻¹ and a kon of 330000 M⁻¹ s⁻¹. B5 showed a Kd of less than 0.01 nM, a koff of 1.8e-07 s⁻¹ and a kon of 203000 M⁻¹ s⁻¹. Binder B6 has a Kd of less than 0.01 nM, a koff of less than 1e-07 s⁻¹ and a kon of 140000 M⁻¹ s⁻¹. B7 was tested, and the Kd was less than 0.01 nM, the koff was less than 1e-07 s⁻¹ and the kon was 151000 M⁻¹ s⁻¹. In the case of B8, the Kd is reported as 0.0214 nM, the koff is reported as 6.65e-06 s⁻¹ and the kon is reported as 311000 M⁻¹ s⁻¹.

The binders below were run against T4, human ALPP on CHO cells (human, UniProt P05187 23-506) (assay: flow cytometry, CHO cells, KDapp).
T4 construct: whole, on cells; also called CHO-ALPP
Protocol: (§2) Cell surface binding of test agents to hALPP isoforms was characterized in four CHO-ALPP isoform transfectant cell lines (CHO-ALPP, CHO-ALPPL2, CHO-ALPI and CHO-ALPL) and the resulting KDapp values determined. Adherent cells were detached from tissue culture flasks by incubating with 0.1% EDTA/PBS solution at 37° C. for ~10 minutes or until cells detached easily. Cells were re-suspended in ice-cold PBS/2% FCS in 15 ml tubes and centrifuged at 1700 rpm for 5 mins at 4° C. Supernatant was removed and the cell pellet re-suspended in PBS/2% FCS. […] Cells were incubated with 100 μl of test agents at a range of concentrations, plus controls for 1 hr on ice. The sample plate was centrifuged at 1700 rpm for 5 mins at 4° C. The supernatant was removed, and a wash performed by re-suspending the cell pellets in 0.25 mL of ice-cold PBS/2% FCS using a multichannel pipette. Samples were again centrifuged at 1700 rpm for 5 min at 4° C. Supernatant was removed and two further washes performed as described. After the final wash and centrifugation step, excess liquid was removed by blotting the plate on tissue paper. Binding of VHH-hFc agents was determined by adding 100 μl of Fitc-anti-human Ab (ThermoFisher) and incubating for 30 mins on ice in the dark. Wash steps were performed as described previously. All cell pellets were finally re-suspended in 0.28 ml of ice-cold PBS/2% FCS and left on ice in the dark prior to analysis on a Merck-Millipore Guava EasyCyte HT or Thermo Fisher Attune N×T flow cytometer.
With B1 the Kd was 3.6 nM. In the case of B2, the Kd is reported as 6 nM. With B3 the Kd was 3.7 nM. Binder B4 has a Kd of 3.3 nM. B5 gave a Kd of 5.4 nM. B6 gave a Kd of 2.9 nM. For B7, the Kd was 1.7 nM.

The binders below were run against T5, human ALPPL2 on CHO cells (human, UniProt P10696 20-503) (assay: flow cytometry, CHO cells, KDapp).
T5 construct: whole, on cells; also called CHO-ALPPL2
Protocol: as §2
B1 gave a Kd of 8 nM. B2 gave a Kd of 3.7 nM. Binder B3 has a Kd of 3 nM. With B4 the Kd was 2.9 nM. With B5 the Kd was 3.9 nM. B6 was tested, and the Kd was 9.3 nM. For B7, the Kd was 1.8 nM.
